Here are results for 1 substance from US20230145766A1.

pKd: −log10 of the molar value.

Assay [1] has as its target T1, IL-2Rβ receptor with an avi tag and an His6 tag at the C-terminus (human) (UniProt P14784).
T1 sequence: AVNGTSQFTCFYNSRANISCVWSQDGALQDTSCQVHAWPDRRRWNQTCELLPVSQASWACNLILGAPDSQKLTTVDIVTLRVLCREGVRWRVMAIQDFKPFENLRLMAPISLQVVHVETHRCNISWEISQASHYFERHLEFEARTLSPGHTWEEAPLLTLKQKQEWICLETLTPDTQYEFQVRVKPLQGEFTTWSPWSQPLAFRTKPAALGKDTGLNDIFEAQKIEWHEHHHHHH
The assay is described as follows: BLI (ForteBio); biotinylated receptor on SA sensor, 100 nM IL-2-Fc in solution, 1:1 model. A general note: In BLI a coated tip is dipped into the sample, and binding shifts an interference pattern.

For assay [2], the target named is T1, IL-2Rβ receptor with an avi tag and an His6 tag at the C-terminus (human). The assay is described as follows: BLI (ForteBio); biotinylated receptor on SA sensor, 100 nM IL-2 mutant molecule in solution, 1:1 model.

Consider “Y045 (IL-2^WT-2*(G4S)-FcLALA) (no sequence given) (Fc fusion; biotin on the avi tag (enzymatic labelling with BirA); other documents disagree on this pair)”, for which the pKd in assay [1] was 7.39; in assay [2], 7.61.

Broadly, the pKd is −log10 of the Kd, conventionally taken in molar units. A lower pKd goes with a large Kd.
